Test results reported in the supplement of paper PMC10126150.
Sequences with one replicate were seen in a single cluster, so their values are uncertain.

system: ATP; assay: switch fluorescence ratio, 500 uM ATP over buffer (Cy3 cluster intensity, sum of 5 cycles each) (fold (ratio)); higher = stronger signal-on switching upon ATP binding; sequences stand for … in TCGTCGGCAGCGTCAGATGTGTATAAGAGACAGTTTTTTTTTTTTTTTTTTTTTTTTT…TC; conditions: aptamer strand: ATP DNA aptamer (quencher-CACCTGGGGGAGTATTGCGGAGGAAGG + anchor), 100 nM annealed; ATP concentration: 500 uM; one replicate
Outline: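 After annealing to 100 nM quencher-labelled ATP aptamer, Cy3-labelled switching-strand clusters on a modified Illumina MiSeq flow-cell were imaged in selection buffer. A second image followed after 15 min with 500 uM ATP at 22 °C, and five such buffer/ATP cycles were done, each separated by NaOH stripping and re-annealing. The fluorescence ratio, averaged per switch-domain sequence, is summed target-cycle over summed buffer-cycle Cy3 intensity per cluster, with clusters outside 100-1000 RFU excluded.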
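Further: ATP exposure 15 min at 22 °C before imaging.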

Row | Sequence | switch fluorescence ratio
1 | TGGTACTATG | 1
2 | TGGTACTCGG | 0.973
3 | TGGTAGTACG | 0.986
4 | TGGTATAAGG | 1
5 | TGGTATAGAG | 0.98
6 | TGGTATCACA | 1
7 | TGGTATTGAG | 0.97
8 | TGGTCACCCC | 1.04
9 | TGGTCAGGGC | 1.03
10 | TGGTCATCAT | 0.96
11 | TGGTCATTTT | 1.02
12 | TGGTCCAACG | 0.991
13 | TGGTCCAGGA | 1
14 | TGGTCCGCGT | 1.22
15 | TGGTCCGTAA | 1.56
16 | TGGTCCTCGA | 0.963
17 | TGGTCGCTCA | 1.04
18 | TGGTCGGCTT | 1.06
19 | TGGTCGTTCC | 1.1
20 | TGGTCTCTG | 0.982
21 | TGGTGACCCG | 1.05
22 | TGGTGACGAG | 1.03
23 | TGGTGAGTGG | 0.996
24 | TGGTGCAATG | 1.12
25 | TGGTGCGTGC | 0.933
26 | TGGTGGACGA | 1

Row | Sequence | switch fluorescence ratio
27 | TGGTGGGCAG | 1
28 | TGGTGGTGGA | 0.984
29 | TGGTGTA | 1.03
30 | TGGTGTCATT | 0.965
31 | TGGTGTCTCA | 1.01
32 | TGGTGTTGGT | 0.968
33 | TGGTTACTTA | 1.01
34 | TGGTTCCTCC | 1.33
35 | TGGTTCGTA | 1.04
36 | TGGTTCTTAC | 3.26
37 | TGGTTGAGGA | 0.993
38 | TGGTTGCATG | 0.993
39 | TGGTTGGATA | 0.999
40 | TGGTTGTCAC | 1
41 | TGGTTGTGCA | 0.971
42 | TGGTTTTTCA | 1
43 | TGTAAAACAG | 1
44 | TGTAAAATCT | 1.01
45 | TGTAACCCGG | 0.993
46 | TGTAAGAAAC | 0.978
47 | TGTAAGAAAG | 1.04
48 | TGTAAGGCTA | 1.01
49 | TGTAAGGGGA | 1.01
50 | TGTAATAACT | 1.04
51 | TGTAATCGAG | 1.01
52 | TGTAATTGGC | 1.04

Row | Sequence | switch fluorescence ratio
53 | TGTACCGGC | 1.04
54 | TGTAGAAGGG | 1.03
55 | TGTAGACT | 1.04
56 | TGTAGATCTC | 1
57 | TGTAGGTGCT | 1.07
58 | TGTAGTGGCA | 1.02
59 | TGTAGTGGTT | 1.04
60 | TGTATAAGAA | 1.02
61 | TGTATACTA | 1.03
62 | TGTATCACCG | 0.969
63 | TGTATTAGAC | 1
64 | TGTCAAACTG | 1.03
65 | TGTCATTGCA | 1.06
66 | TGTCCAAAAT | 2.05
67 | TGTCCAGTGC | 1.09
68 | TGTCCATTAG | 0.988
69 | TGTCCCAGCT | 1.02
70 | TGTCCGAGAC | 1.06
71 | TGTCCGTTGC | 1.11
72 | TGTCCTAACC | 0.998
73 | TGTCGACATG | 1
74 | TGTCGACCTT | 1.07
75 | TGTCGATAGA | 1.03
76 | TGTCGGAAGG | 0.985
77 | TGTCGGAAGT | 1.02
78 | TGTCGGAGTA | 0.987

Row | Sequence | switch fluorescence ratio
79 | TGTCGGATCA | 1.02
80 | TGTCGTGCTA | 0.953
81 | TGTCTAATTG | 0.985
82 | TGTCTCAGCT | 1
83 | TGTCTGCT | 0.979
84 | TGTCTGGATG | 0.982
85 | TGTGAAGCCC | 0.973
86 | TGTGAAGCGT | 0.933
87 | TGTGAATA | 0.993
88 | TGTGAGTCCT | 0.947
89 | TGTGATCA | 1
90 | TGTGATGTG | 0.997
91 | TGTGATTCGG | 1.04
92 | TGTGCAATG | 5.75
93 | TGTGCGCCTT | 0.949
94 | TGTGCGGATT | 1.04
95 | TGTGCGTTGG | 1.05
96 | TGTGCTTAGG | 0.959
97 | TGTGGAGGAC | 0.995
98 | TGTGGATTAG | 0.936
99 | TGTGGCTTAG | 0.996
100 | TGTGGCTTTC | 1
101 | TGTGGGAGGA | 1.04
102 | TGTGGGCGCT | 1.01
103 | TGTGGGTGCG | 1.01
104 | TGTGGTACCG | 0.971

Row | Sequence | switch fluorescence ratio
105 | TGTGGTTCCG | 1
106 | TGTGTATTAC | 0.984
107 | TGTGTCAAGG | 0.99
108 | TGTGTCCAAG | 0.975
109 | TGTGTCCAGT | 0.956
110 | TGTGTCCGCC | 1.15
111 | TGTGTGAATT | 1.71
112 | TGTGTGAGA | 1.04
113 | TGTGTGGCGG | 0.964
114 | TGTGTTGAGT | 0.953
115 | TGTGTTGTGC | 0.986
116 | TGTTAACGTA | 1.02
117 | TGTTAAGGAT | 0.945
118 | TGTTAATCGT | 0.997
119 | TGTTAATGAC | 1.04
120 | TGTTAATGT | 1.02
121 | TGTTACCCCT | 0.999
122 | TGTTACGCCT | 1.01
123 | TGTTACTG | 1.02
124 | TGTTACTGGA | 0.939
125 | TGTTACTGGG | 0.957
126 | TGTTAGCACG | 1.05
127 | TGTTAGCTTC | 1.02
128 | TGTTAGCTTG | 0.932
129 | TGTTAGGCGG | 1.02
130 | TGTTAGGTAC | 1.07

Row | Sequence | switch fluorescence ratio
131 | TGTTATACTC | 1.46
132 | TGTTCACCT | 1.02
133 | TGTTCAGTTG | 1.04
134 | TGTTCATTGG | 1.02
135 | TGTTCCTATT | 0.962
136 | TGTTCGCCGG | 1.02
137 | TGTTCTCCCT | 1.04
138 | TGTTCTCG | 1.02
139 | TGTTCTCGGT | 0.99
140 | TGTTCTTCGG | 1.01
141 | TGTTGACACT | 0.934
142 | TGTTGACCCC | 1.08
143 | TGTTGATTGG | 1.38
144 | TGTTGCCAAA | 0.981
145 | TGTTGGGCGA | 0.995
146 | TGTTGGGTTA | 0.991
147 | TGTTGGTAGT | 1.03
148 | TGTTGTAGGT | 0.902
149 | TGTTTACGCA | 1.57
150 | TGTTTAGCAG | 1.14
151 | TGTTTGGAAA | 0.936
152 | TGTTTGTAAC | 0.985
153 | TTAAAAAATA | 0.988
154 | TTAAAACCCT | 1.15
